Measured values: a collection of fitness landscapes (doi:10.1126/science.1257360)
The list shows a part of the results.

B1: PhoQ; a variant is named by its letters at X, in order, P23837 (parent)
chain: MKKLLRLFFPLSLRVRFLLATAAVVLVLSLAYGMVALIGYSVSFDKTTFRLLRGESNLFYTLAKWENNKLHVELPENIDKQSPTMTLIYDENGQLLWAQRDVPWLMKMIQPDWLKSNGFHEIEADVNDTSLLLSGDHSIQQQLQEVREDDDDAEMTHSVAVNVYPATSRMPKLTIVVVDTIPVELKSSYMVWSWFIYVLSANLLLVIPLLWVAAWWSLRPIEALAKEVRELEEHNRELLNPATTRELTSLVRNLNRLLKSERERYDKYRTTLTDLTHSLKTPLXXLQXXLRSLRSEKMSVSDAEPVMLEQISRISQQIGYYLHRASMRGGTLLSRELHPVAPLLDNLTSALNKVYQRKGVNISLDISPEISFVGEQNDFVEVMGNVLDNACKYCLEFVEISARQTDEHLYIVVEDDGPGIPLSKREVIFDRGQRVDTLRPGQGVGLAVAREITEQYEGKIVAGESMLGGARMEVIFGRQHSAPKDE

Variants of: B1
Test: enrichment ratio after two sorts for PhoP signalling (ratio (wild type AVST 3.29)); higher = more functional
Conditions: with PhoP (E. coli)

Row | Variant | enrichment ratio
1 | SCWT | ≤ 0.25
2 | TMSV | 16.5
3 | TSML | 17.8
4 | PNGS | ≤ 0.25
5 | EPMS | ≤ 0.25
6 | SFWG | ≤ 0.25
7 | YSVA | ≤ 0.25
8 | KNRF | ≤ 0.25
9 | VDRV | ≤ 0.25
10 | NKTQ | ≤ 0.25
11 | RFDT | ≤ 0.25
12 | SYTM | ≤ 0.25
13 | SPPL | ≤ 0.25
14 | QPRG | ≤ 0.25
15 | CIKL | ≤ 0.25
16 | FYSI | ≤ 0.25
17 | PGFC | ≤ 0.25
18 | VPKP | ≤ 0.25
19 | IIPP | ≤ 0.25
20 | HCPT | ≤ 0.25
21 | DAYW | ≤ 0.25
22 | SQSR | ≤ 0.25
23 | DHCS | ≤ 0.25
24 | EPCQ | ≤ 0.25

Row | Variant | enrichment ratio
25 | DCTK | ≤ 0.25
26 | ENRM | ≤ 0.25
27 | VYSW | ≤ 0.25
28 | PINC | ≤ 0.25
29 | QARR | ≤ 0.25
30 | FVMH | ≤ 0.25
31 | DAHI | ≤ 0.25
32 | TASS | 13.4
33 | IKDR | ≤ 0.25
34 | PNVE | ≤ 0.25
35 | HQAD | ≤ 0.25
36 | NSNQ | ≤ 0.25
37 | QCAL | 1.33
38 | QCTF | ≤ 0.25
39 | DRMD | ≤ 0.25
40 | IYMT | ≤ 0.25
41 | GEYA | ≤ 0.25
42 | PQDH | ≤ 0.25
43 | KMFL | ≤ 0.25
44 | VSRR | ≤ 0.25
45 | FYQP | ≤ 0.25
46 | ISKK | ≤ 0.25
47 | SHQC | ≤ 0.25
48 | YHWV | ≤ 0.25

Row | Variant | enrichment ratio
49 | PRFT | ≤ 0.25
50 | GYHS | ≤ 0.25
51 | NSQY | ≤ 0.25
52 | VADG | ≤ 0.25
53 | ILVN | ≤ 0.25
54 | TCDS | 1.7
55 | QWMP | ≤ 0.25
56 | DWPN | ≤ 0.25
57 | WFWG | ≤ 0.25
58 | YCGE | ≤ 0.25
59 | RCYF | ≤ 0.25
60 | TRQD | ≤ 0.25
61 | DAIW | ≤ 0.25
62 | RFDQ | ≤ 0.25
63 | LKMA | ≤ 0.25
64 | IHNA | ≤ 0.25
65 | TMFM | ≤ 0.25
66 | TCEM | 5.56
67 | ARFF | ≤ 0.25
68 | PDCK | ≤ 0.25
69 | VFPV | ≤ 0.25
70 | DRRW | ≤ 0.25
71 | LDNA | ≤ 0.25
72 | GIAA | 2.08

Row | Variant | enrichment ratio
73 | GNGN | ≤ 0.25
74 | SIPR | ≤ 0.25
75 | QKRW | ≤ 0.25
76 | VAGT | ≤ 0.25
77 | SQWR | ≤ 0.25
78 | INMD | ≤ 0.25
79 | NACI | ≤ 0.25
80 | WAPC | ≤ 0.25
81 | VIVM | ≤ 0.25
82 | PLYE | ≤ 0.25
83 | QHNA | 4.36
84 | GDSE | ≤ 0.25
85 | DQLR | ≤ 0.25
86 | WCML | ≤ 0.25
87 | KLKE | ≤ 0.25
88 | ISIN | ≤ 0.25
89 | LEAR | ≤ 0.25
90 | SYPT | ≤ 0.25
91 | FHTY | ≤ 0.25
92 | EIQP | ≤ 0.25
93 | EKLD | ≤ 0.25
94 | YFTG | ≤ 0.25
95 | LSCL | 0.9
96 | GWDK | ≤ 0.25

Row | Variant | enrichment ratio
97 | FFLF | ≤ 0.25
98 | DHRP | ≤ 0.25
99 | HFGL | ≤ 0.25
100 | YKRT | ≤ 0.25
101 | LQRW | ≤ 0.25
102 | WNIL | ≤ 0.25
103 | MPTF | ≤ 0.25
104 | ASVT | 15.2
105 | MVRY | ≤ 0.25
106 | YTWN | ≤ 0.25
107 | SVIH | ≤ 0.25
108 | AGTH | 5.3
109 | GQTH | ≤ 0.25
110 | VKCQ | ≤ 0.25
111 | LCKE | ≤ 0.25
112 | NKVV | ≤ 0.25
113 | TCCQ | 12.5
114 | GAKA | ≤ 0.25
115 | DCFI | ≤ 0.25
116 | PVKV | ≤ 0.25
117 | THHD | ≤ 0.25
118 | WSLD | ≤ 0.25
119 | RTPG | ≤ 0.25
120 | LTWE | ≤ 0.25

Row | Variant | enrichment ratio
121 | QRCD | ≤ 0.25
122 | MGWN | 18.9
123 | HFAW | ≤ 0.25
124 | HRQT | ≤ 0.25
125 | WIGK | ≤ 0.25
126 | MFYW | ≤ 0.25
127 | PYDD | ≤ 0.25
128 | RYCS | ≤ 0.25
129 | EPDR | ≤ 0.25
130 | HCKN | ≤ 0.25
131 | SSWQ | 3.41
132 | KGTC | ≤ 0.25
133 | EFAW | ≤ 0.25
134 | YFYL | ≤ 0.25
135 | LNGM | ≤ 0.25
136 | STQW | ≤ 0.25
137 | MGEL | ≤ 0.25
138 | TYYK | ≤ 0.25
139 | SLIM | ≤ 0.25
140 | RCSA | ≤ 0.25
141 | APLR | ≤ 0.25
142 | KIAR | ≤ 0.25
143 | PLMH | ≤ 0.25
144 | MPSH | ≤ 0.25

Row | Variant | enrichment ratio
145 | PEND | ≤ 0.25
146 | IWWS | ≤ 0.25
147 | TNKC | ≤ 0.25
148 | NMDG | ≤ 0.25
149 | MYQA | ≤ 0.25
150 | VTFY | ≤ 0.25
151 | DSDR | ≤ 0.25
152 | YNNM | ≤ 0.25
153 | LRPH | ≤ 0.25
154 | IMRY | ≤ 0.25
155 | WRLV | ≤ 0.25
156 | PYAS | ≤ 0.25
157 | VWPL | ≤ 0.25
158 | ELVQ | ≤ 0.25
159 | MADS | ≤ 0.25
160 | HKYW | ≤ 0.25
161 | HKHD | ≤ 0.25
162 | RGLT | ≤ 0.25
163 | PFMS | ≤ 0.25
164 | VMSI | ≤ 0.25
165 | EKSL | ≤ 0.25
166 | GNEW | ≤ 0.25
167 | YKFY | ≤ 0.25
168 | KRSP | ≤ 0.25

Row | Variant | enrichment ratio
169 | WLTK | ≤ 0.25
170 | SRTT | ≤ 0.25
171 | GHCP | ≤ 0.25
172 | YKNN | ≤ 0.25
173 | GYLP | ≤ 0.25
174 | YVTP | ≤ 0.25
175 | PTID | ≤ 0.25
176 | PRPV | ≤ 0.25
177 | EQPE | ≤ 0.25
178 | FHWN | ≤ 0.25
179 | ANYY | ≤ 0.25
180 | HWHE | ≤ 0.25
181 | QCDQ | ≤ 0.25
182 | HCSE | ≤ 0.25
183 | WDGV | ≤ 0.25
184 | FKKI | ≤ 0.25
185 | TDYC | ≤ 0.25
186 | HNEP | ≤ 0.25
187 | VDHV | ≤ 0.25
188 | RCYV | ≤ 0.25
189 | IQFI | ≤ 0.25
190 | FSKI | ≤ 0.25
191 | NGIP | ≤ 0.25
192 | YCCE | ≤ 0.25

Row | Variant | enrichment ratio
193 | DNVV | ≤ 0.25
194 | WFHA | ≤ 0.25
195 | MVMP | ≤ 0.25
196 | GLRY | ≤ 0.25
197 | PLRN | ≤ 0.25
198 | WMCT | ≤ 0.25
199 | HVYG | ≤ 0.25
200 | VVYK | ≤ 0.25
201 | KIGT | ≤ 0.25
202 | GGRW | ≤ 0.25
203 | RRKV | ≤ 0.25
204 | RKRM | ≤ 0.25
205 | GFRV | ≤ 0.25
206 | LLDW | ≤ 0.25
207 | YNTH | ≤ 0.25
208 | VMIQ | ≤ 0.25
209 | TWWG | ≤ 0.25
210 | EHRP | ≤ 0.25
211 | FTIQ | ≤ 0.25
212 | PELS | ≤ 0.25
213 | EEFC | ≤ 0.25
214 | HGWC | ≤ 0.25
215 | RLVL | ≤ 0.25
216 | NAHY | ≤ 0.25

Row | Variant | enrichment ratio
217 | AYCW | ≤ 0.25
218 | HPTD | ≤ 0.25
219 | HHNL | ≤ 0.25
220 | VVLK | ≤ 0.25
221 | FRWN | ≤ 0.25
222 | IWVG | ≤ 0.25
223 | YTPD | ≤ 0.25
224 | PYIT | ≤ 0.25
225 | QPWY | ≤ 0.25
226 | YLLW | ≤ 0.25
227 | NLLI | ≤ 0.25
228 | SDVY | 0.998
229 | WEMY | ≤ 0.25
230 | NKMT | ≤ 0.25
231 | FMMC | ≤ 0.25
232 | WYLK | ≤ 0.25
233 | WLWS | ≤ 0.25
234 | YFMR | ≤ 0.25
235 | KKLP | ≤ 0.25
236 | YCRK | ≤ 0.25
237 | THIM | ≤ 0.25
238 | VKPP | ≤ 0.25
239 | SPAP | ≤ 0.25
240 | YFSN | ≤ 0.25

Row | Variant | enrichment ratio
241 | QNIP | ≤ 0.25
242 | MDIT | ≤ 0.25
243 | DSPQ | ≤ 0.25
244 | LYGM | 0.313
245 | AVVH | 9.17
246 | ESAN | ≤ 0.25
247 | PSWD | ≤ 0.25
248 | NSTS | ≤ 0.25
249 | RYMT | ≤ 0.25
250 | FAKR | ≤ 0.25
251 | IERQ | ≤ 0.25
252 | PQWV | ≤ 0.25
253 | HLSI | 0.357
254 | AEKH | ≤ 0.25
255 | FLPQ | ≤ 0.25
256 | AKNQ | ≤ 0.25
257 | NYWM | ≤ 0.25
258 | IWPT | ≤ 0.25
259 | RVER | ≤ 0.25
260 | NHYT | ≤ 0.25
261 | PFNQ | ≤ 0.25
262 | AYLW | ≤ 0.25
263 | NQTE | ≤ 0.25
264 | QTSN | 2.91

Row | Variant | enrichment ratio
265 | NKPS | ≤ 0.25
266 | DIVC | ≤ 0.25
267 | GFFY | ≤ 0.25
268 | AFSY | ≤ 0.25
269 | NDAE | ≤ 0.25
270 | LTRF | ≤ 0.25
271 | MLIV | ≤ 0.25
272 | RVRD | ≤ 0.25
273 | TNGW | ≤ 0.25
274 | LARR | ≤ 0.25
275 | HKTM | ≤ 0.25
276 | THRE | ≤ 0.25
277 | HRAT | ≤ 0.25
278 | LKAS | ≤ 0.25
279 | GECF | 4.68
280 | TIFW | ≤ 0.25
281 | VPMH | ≤ 0.25
282 | QERN | ≤ 0.25
283 | KDRH | ≤ 0.25
284 | EHHP | ≤ 0.25
285 | KCVG | ≤ 0.25
286 | LPSV | ≤ 0.25
287 | MIGY | 4.9
288 | YGDW | ≤ 0.25

Row | Variant | enrichment ratio
289 | PQIT | ≤ 0.25
290 | NWEV | ≤ 0.25
291 | SGPL | ≤ 0.25
292 | DYES | ≤ 0.25
293 | FFAN | ≤ 0.25
294 | KYMC | ≤ 0.25
295 | LRTA | ≤ 0.25
296 | TFLG | 11.8
297 | VLDR | ≤ 0.25
298 | WDMK | ≤ 0.25
299 | GSKL | ≤ 0.25
300 | AKAS | 9.64
301 | DQTQ | ≤ 0.25
302 | QCFY | ≤ 0.25
303 | HALW | ≤ 0.25
304 | QKPS | ≤ 0.25
305 | VFCM | ≤ 0.25
306 | PPFL | ≤ 0.25
